Consider 62 molecules from PubChem BioAssay AID1508642 (National Center for Advancing Translational Sciences (NCATS), 2021).

The whole screen tested about 43,000 compounds, of which about 200 (0.47%) were called active. Another 12% or so got no clear call; they are omitted. Calls follow the shape of the dose curve; as a rule, active = well fitted cell-killing curve with a large enough effect; inconclusive = small, poorly fitted or top-dose-only effect, or effect the other way; inactive = flat fitted curve, though single readings scatter. The list shows a part of the results.
% is scaled to controls: 0 for no effect and ±100 for the full control effect.

A short description of the assay: Cell viability qHTS assay in S16 Pmp22-F2sN cells. Also: nearly all actives have a fitted effect of over 65% in size. Particulars: S16 Pmp22-F2sN Schwann cells (luciferase reporters placed in the Pmp22 gene) viability, CellTiter-Glo, 24 h; series mostly up to 57.5 µM; activity change, negative = cytotoxicity: at the top concentration. An excerpt: Assay Provider: Jim Inglese Ph.D. National Center for Advancing Translational Science, National Institutes of Health, Rockville, MD CMT is a heterogeneous group of neurological disorders that affect approximately 1 in 2,500 people. In particular, the most common form of CMT, CMT1A is genetically linked to the duplication of the PMP22 gene which leads to Schwann cell overexpression, thus manifesting itself as a typical case of dose-sensitive diseases. To identify small molecule compounds that can mediate the expression of PMP22 we developed a phenotypic assay screening strategy by utilizing genome editing techniques to construct Schwann cell lines containing novel reporter technology to monitor the transcriptional or translational regulation of PMP22. For high sensitivity we use a bioluminescent reporter system embedded in the 3' UTR of the PMP22 gene (S16(c9) Pmp22-F2sN) to identify compounds that inhibit gene expression. […] We can further discriminate the effect of all transcriptionally active molecules on PMP22 translation or stability with an assay that incorporates a short NLuc peptide (HiBiT) at the C-terminus of expressed PMP22 (S16(f8) PMP22-HiBiT) allowing alpha complementation and luminescence detection of membrane-associated PMP22 protein. These assays were screened against the NCATS Sytravon Library Collection. Miniaturization of these assays to 1536-well plate format for quantitative high throughput screening (qHTS) yielded rich data sets immediately from the qHTS assay (S16(c9) Pmp22-F2sN), when compared with data from a cell viability assay (Cell TiterGlo) to identify compounds that decreased the output signals through cellular toxicity to streamline the selection process of actives for subsequent characterization using the HiBiT assay (S16(f8) PMP22-HiBiT).
Cell viability assay in S16 Pmp22-F2sN cells PROTOCOL TABLE (format as described by Inglese J, Shamu CE and Guy RK. 2007) SEQUENCE No. (e.g., 1, 2, 3, etc.); […] (e.g., Cells, Incubation, Reagent, etc.); VALUE and DESCRIPTION. 1. Cells. Add 500-1,000 cells in 4 uL in growth media (DMEM High Glucose, No Phenol Red media + 10% heat-inactivated FBS + 1% Pen/Strep supplemented media) per well into Greiner 1536-well white/solid bottom high base, TC-treated plates. 2. Compounds. Library compounds and controls added at 23nL per well, transferred by Pin Tool. 3. Incubation. Incubate plates at 37C, 5% CO2, 95% RH for 24 h. 4. Reagent. Add 3uL CellTiter-Glo per well of Greiner 1536-well plates. 5. Incubation. Incubate plates at room temperature for 15 min., protect from light. 6. Detector. FLuc luminescence measured using CCD-based camera (Viewlux). NOTES (numbers refer to Sequence numbers above; values are from representative experiments) 6. Luminescence Read: Clear filter; Exposure = 1 sec, Gain = High, Speed = Slow, Binning = 2X REFERENCES: 1. Inglese J, Shamu CE and Guy RK, Reporting data from high throughput screening of small molecule libraries, Nature Chemical Biology, 2007, 3(8): 438-441. doi.org/10.1038/nchembio0807-438 2. Yasgar A, Shinn P, Jadhav A, Auld DS, Michael S, Zheng W, Austin CP, Inglese J and Simeonov A, Compound Management for Quantitative High-Throughput Screening. J. Assoc. Lab. Auto., 2008, 13: 79-89. doi: 10.1016/j.jala.2007.12.004
(In general: Quantitative high-throughput screening tests each substance at several concentrations.)
As for `COc1cccc(C2C(C(=O)Nc3ccc(C)cc3C)=C(C)Nc3nc4ccccc4n32)c1OC` (configuration not stated), the “activity change, negative = cytotoxicity” value is inactive: 13.9%.
`CC1(C)C(=O)N(CC(=O)Nc2ccc(Br)cc2F)c2ccccc21`: the “activity change, negative = cytotoxicity” value is inactive: -0.766%.
Regarding `CCOc1ccc(CNS(=O)(=O)c2ccc(-c3coc(C)n3)cc2)cc1`, the “activity change, negative = cytotoxicity” value was inactive: 2.43%.
On to `Cc1nc2ccc(S(=O)(=O)N(C)CC(=O)Nc3cccc(C(F)(F)F)c3)cc2s1`, for which the “activity change, negative = cytotoxicity” value is inactive: 6.43%.
As for `CCOC(=O)c1cc(S(=O)(=O)N2CCN(c3ccccc3F)CC2)[nH]n1`, the “activity change, negative = cytotoxicity” value was inactive: 4.8%.
As to `CCOc1ccc(OCC)c(NS(=O)(=O)c2ccc(-c3coc(C)n3)cc2)c1`, the “activity change, negative = cytotoxicity” value is inactive: -28.7%.
Then `Cn1c(=O)[nH]c(=O)c2c1nc(NCCc1ccccc1)n2Cc1ccc(F)cc1`, with inactive: -27.5%; and `CC(=O)N1CCC(N(Cc2ccc(C)o2)C(=O)Nc2ccc(C)cc2)CC1`, with inactive: 0.298%.
With `CCOc1ccc2nc(NC(=O)c3nc(SC)ncc3Cl)sc2c1`, the “activity change, negative = cytotoxicity” value was inactive: 1.13%.
For `CCOc1ccccc1NC(=O)Cc1noc2ccc(C)cc12`, the “activity change, negative = cytotoxicity” value is inactive: 5.03%.
As for `Cn1cc(S(=O)(=O)N2CCOCC2)cc1C(=O)Nc1ccc(Cl)c(C(F)(F)F)c1`, the figure is inactive: -23.2%; as for `Cc1cc(NC(=O)Nc2nnc(N(C)Cc3ccccc3)s2)ccc1Br`, inactive: 13.5%.
Then `Cc1ccc(N(CC(=O)Nc2cccc(Cl)c2)S(=O)(=O)c2cccs2)cc1`, with inactive: -5.07%.
With `CCN(Cc1ccccc1)S(=O)(=O)c1ccc2c(c1)CC(C)N2C(=O)C1CCC1` (configuration not stated), the “activity change, negative = cytotoxicity” value is inactive: -29.5%.
As for `CC(=O)C1=C(c2ccc(Cl)cc2)N(C(C)=O)n2c(nnc2C2CCCCC2)S1`, the “activity change, negative = cytotoxicity” value is inactive: 0.644%.
As for `COc1cccc(CNC(=O)c2cc3c(=O)oc4ccc(C)cc4c3s2)c1`, the figure is inactive: -18.1%; as for `Cc1ccc2c(c1)N(CCC(=O)NCc1ccccc1Cl)C(=O)CO2`, inactive: -8.24%; as for `O=c1c2oc3ccccc3c2n(Cc2ccccc2F)c(=O)n1Cc1ccccc1`, inactive: 4.34%.
As for `Cc1ccc2onc(CC(=O)Nc3ccc(C(C)C)cc3)c2c1`, the figure is inactive: 10.5%.
On to `Cn1c(=O)[nH]c2cc(-c3noc(-c4cccc(Cl)c4)n3)ccc21`, for which the “activity change, negative = cytotoxicity” value is inactive: 4.43%.
As for `CCCNC(=O)Cn1nc(-c2ccc(F)cc2)c2cnc3ccc(F)cc3c21`, the figure is inactive: 3.82%.
Then `CCOc1cccc(C(=O)N(Cc2ccc(CC)cc2)C2CCS(=O)(=O)C2)c1` (configuration not stated), with inactive: 0.461%.
With `COc1ccccc1NC(=O)CSC1=Nc2ccccc2C2=NC(CCC(=O)NCc3cccs3)C(=O)N12` (configuration not stated), the “activity change, negative = cytotoxicity” value is inactive: 1.17%.
Then `CCCCN(CC)C(=O)Cn1ncc2c3ccccc3n(CCC)c2c1=O`, with inactive: -5.74%; and `COc1ccc(-n2cc(C(=O)NCc3ccccc3Cl)c3ccccc3c2=O)cc1`, with inactive: 10.4%.
`CCC(C)NC(=O)c1cccc(NC(=O)c2nsc3ccccc23)c1` (configuration not stated): the “activity change, negative = cytotoxicity” value was inactive: 1.26%.
For the molecule `COc1cc2nc(SCC(=O)Nc3ccccc3F)n3nc(-c4ccccc4)nc3c2cc1OC`, the “activity change, negative = cytotoxicity” value is inactive: -2.43%.
Then `COc1ccc(-c2nc3scc(CCNS(=O)(=O)c4ccc(NC(C)=O)cc4)n3n2)cc1`, with inactive: -16.5%; and `COc1ccccc1C(=O)N1CCN(Cc2cc(=O)oc3cc(C)ccc23)CC1`, with inactive: -14%.
Take `Cc1ccc(CNC(=O)c2ccc(CSCc3ccccc3C)o2)cc1`: the “activity change, negative = cytotoxicity” value was inactive: 2.68%.
Then `COc1ccc(-c2nc3ccc(NS(=O)(=O)c4ccc(Cl)cc4)cc3o2)cc1`, with inactive: -1.28%.
Consider `CCc1ccc(NC(=O)CSc2nc3c(sc4ccccc43)c(=O)n2CCCOC(C)C)cc1`, for which the “activity change, negative = cytotoxicity” value was inactive: 0.571%.
Then `CCOc1ccc(-c2nc(Cn3ccn4nc(-c5ccc(OCC)c(Cl)c5)cc4c3=O)c(C)o2)cc1`, with inactive: -5.66%; and `Cc1ccccc1Nc1cc(C(=O)NCc2cccs2)c2ccccc2n1`, with inactive: -22.2%.
For the molecule `CCOc1ccc(NCc2cccn2-c2nnc(N3CCC(C(=O)NCCOC)CC3)s2)cc1`, the “activity change, negative = cytotoxicity” value is inactive: 4.2%.
As for `C=C(C)Cn1c(=O)c2c(nc3n2CCN3c2ccc(F)cc2)n(C)c1=O`, the figure is inactive: 4.1%; as for `Cc1cc(=O)n2nc(N3CCC(C(=O)NCc4ccc(F)cc4)CC3)sc2n1`, inactive: 3.13%.
In the case of `COc1ccc(Nc2ncc(C(=O)N3CCN(c4ccc(F)cc4)CC3)c3ccccc23)cc1`, the “activity change, negative = cytotoxicity” value is inactive: -6%.
As for `COc1ccc(C)cc1N(C)C(=O)c1c2c(nc3ccccc13)C(=O)N(C1CCCCC1)C2`, the figure is inactive: -15.2%; as for `Cc1noc(Cn2c(=O)c3cc4c(cc3n(CC(=O)Nc3ccccc3Br)c2=O)OCO4)n1`, inactive: -3.29%.
Then `O=C(Nc1sc2c(c1C(=O)N1CCCCC1)CCCC2)c1ccccc1Cl`, with inactive: -24.2%; and `COc1ccc(NC(=O)CNC(=O)Cn2c(C)cc3ccccc3c2=O)cc1OC`, with inactive: 1.04%.
As for `CN(C)c1ccc(CNC(=O)CCS(=O)(=O)c2ccc3c(c2)oc(=O)n3C)cc1`, the figure is inactive: -1.25%; as for `O=C(CN1C(=O)CCc2cc(S(=O)(=O)N3CCOCC3)ccc21)Nc1cccc(C(F)(F)F)c1`, inactive: -5.66%.
Regarding `Cc1ccc2c(=O)cc(C(=O)Nc3sc4c(c3C(=O)NCc3ccccc3)CCCC4)oc2c1C`, the “activity change, negative = cytotoxicity” value was inactive: 10.9%.
Then `CCCCCCOc1ccc(C2C(=O)N(C3CCCCC3)CC(=O)N2CCCC)cc1` (configuration not stated), with inactive: -17.3%; and `CCOc1cccc(C(=O)Nc2cc(-c3ccc(C)cc3)no2)c1`, with inactive: -8.27%; and `CCCS(=O)(=O)N1CCCC(C(=O)NCCOC)C1` (configuration not stated), with inactive: -20.4%.
As to `CCCCN(CCCC)C1=C(C(=O)c2ccccc2)N(C)S(=O)(=O)c2ccccc21`, the “activity change, negative = cytotoxicity” value was inactive: -8.03%.
For `Cc1ccccc1CNC(=O)CN(c1cccc(C)c1C)S(C)(=O)=O`, the “activity change, negative = cytotoxicity” value was inactive: -0.0002%.
With `O=C(CSc1cn(CC(=O)N2CCOCC2)c2ccccc12)Nc1ccccc1`, the “activity change, negative = cytotoxicity” value is inactive: 6.27%.
As for `O=C(COCc1cc(-c2ccc3c(c2)OCO3)on1)NCc1ccccc1Cl`, the figure is inactive: 3.59%; as for `O=C(Nc1c(C(=O)O)oc2ccccc12)c1ccc(C(F)(F)F)cc1`, inactive: -3.59%.
As for `CC1=C(c2ccc(C)c(C)c2)S(=O)(=O)N(Cc2ccc(C(=O)NC(C)c3ccccc3)cc2)C1=O` (configuration not stated), the figure is inactive: -2.63%; as for `Cc1ccccc1Cc1c(C)nc2nc(SCC(=O)NCCc3ccc(Cl)cc3)nn2c1C`, inactive: -28.9%.
Then `O=C(COc1ccccc1)Nc1ccccc1OCc1cc(=O)n2ccccc2n1`, with inactive: 3.92%; and `COc1ccccc1OCC(=O)NCc1nc(-c2ccc(Cl)cc2)no1`, with inactive: -0.893%.
Turning to `CCOc1ccc(C(=O)Nc2ccc(S(=O)(=O)Nc3nc(C)cc(C)n3)cc2)cc1OC`, the “activity change, negative = cytotoxicity” value was inactive: -2.96%.
Then `COCCCNC(=O)CSc1nc2cc3c(cc2c(=O)n1CCCC(=O)NCc1ccc(OC)cc1)OCO3`, with inactive: 1.68%.
For `Cn1c(=O)c2c(nc(Oc3ccccc3)n2Cc2c(Cl)cccc2Cl)n(C)c1=O`, the “activity change, negative = cytotoxicity” value is inactive: -2.59%.
Turning to `O=C(COc1ccccc1[N+](=O)[O-])Nc1cccc(-c2nc3ccccc3s2)c1`, the “activity change, negative = cytotoxicity” value is inactive: -2.46%.
As to `COc1ccc(N(CC(=O)Nc2cc(C)ccc2C)S(=O)(=O)c2ccc(OC)c(OC)c2)cc1`, the “activity change, negative = cytotoxicity” value was inactive: -12.1%.
